Data from a collection of fitness landscapes (doi:10.1126/science.1257360).
Some of the results follow.

B1: PhoQ; a variant is named by its letters at X, in order, P23837 (parent)
chain: MKKLLRLFFPLSLRVRFLLATAAVVLVLSLAYGMVALIGYSVSFDKTTFRLLRGESNLFYTLAKWENNKLHVELPENIDKQSPTMTLIYDENGQLLWAQRDVPWLMKMIQPDWLKSNGFHEIEADVNDTSLLLSGDHSIQQQLQEVREDDDDAEMTHSVAVNVYPATSRMPKLTIVVVDTIPVELKSSYMVWSWFIYVLSANLLLVIPLLWVAAWWSLRPIEALAKEVRELEEHNRELLNPATTRELTSLVRNLNRLLKSERERYDKYRTTLTDLTHSLKTPLXXLQXXLRSLRSEKMSVSDAEPVMLEQISRISQQIGYYLHRASMRGGTLLSRELHPVAPLLDNLTSALNKVYQRKGVNISLDISPEISFVGEQNDFVEVMGNVLDNACKYCLEFVEISARQTDEHLYIVVEDDGPGIPLSKREVIFDRGQRVDTLRPGQGVGLAVAREITEQYEGKIVAGESMLGGARMEVIFGRQHSAPKDE

Variants of: B1
Assay: enrichment ratio after two sorts for PhoP signalling (ratio (wild type AVST 3.29)); higher = more functional
Conditions: with PhoP (E. coli)

Row | Variant | enrichment ratio
1 | VAQQ | ≤ 0.25
2 | SHNR | ≤ 0.25
3 | MLIG | ≤ 0.25
4 | PPNW | ≤ 0.25
5 | FIYH | ≤ 0.25
6 | ASAV | 11.5
7 | TAMC | 14.6
8 | SVVV | ≤ 0.25
9 | ATWI | ≤ 0.25
10 | GEWT | ≤ 0.25
11 | VLRE | ≤ 0.25
12 | PARP | ≤ 0.25
13 | KCTW | ≤ 0.25
14 | KNMT | ≤ 0.25
15 | NYRA | ≤ 0.25
16 | RSPD | ≤ 0.25
17 | HDSY | ≤ 0.25
18 | NILT | ≤ 0.25
19 | SSSY | 8.81
20 | KCFS | ≤ 0.25
21 | VKTP | ≤ 0.25
22 | EYSM | ≤ 0.25
23 | IQTR | ≤ 0.25
24 | APYH | ≤ 0.25
25 | GVPM | ≤ 0.25
26 | NLGF | ≤ 0.25

Row | Variant | enrichment ratio
27 | MRHQ | ≤ 0.25
28 | WYIP | ≤ 0.25
29 | EYFV | ≤ 0.25
30 | LEHI | ≤ 0.25
31 | PEAH | ≤ 0.25
32 | YQPD | ≤ 0.25
33 | AFCA | ≤ 0.25
34 | DTEF | ≤ 0.25
35 | YYIS | ≤ 0.25
36 | SFSW | ≤ 0.25
37 | THYK | ≤ 0.25
38 | APQH | ≤ 0.25
39 | ILDH | ≤ 0.25
40 | DRQK | ≤ 0.25
41 | APFH | ≤ 0.25
42 | YYSY | ≤ 0.25
43 | EGFM | ≤ 0.25
44 | CSLH | ≤ 0.25
45 | RYGH | ≤ 0.25
46 | AEAH | 7.03
47 | PSLL | ≤ 0.25
48 | KVGL | ≤ 0.25
49 | EVKW | ≤ 0.25
50 | RRCL | ≤ 0.25
51 | RHKT | ≤ 0.25
52 | LPSN | ≤ 0.25

Row | Variant | enrichment ratio
53 | SHIK | ≤ 0.25
54 | ASQT | ≤ 0.25
55 | SFRH | ≤ 0.25
56 | MAHR | ≤ 0.25
57 | LCPW | ≤ 0.25
58 | GCDW | ≤ 0.25
59 | TEPA | ≤ 0.25
60 | EFDH | ≤ 0.25
61 | PFKT | ≤ 0.25
62 | SQNH | ≤ 0.25
63 | WLWL | ≤ 0.25
64 | WCWS | ≤ 0.25
65 | GLPI | ≤ 0.25
66 | FARS | ≤ 0.25
67 | RPYL | ≤ 0.25
68 | ATYQ | 0.887
69 | FCAA | ≤ 0.25
70 | RENI | ≤ 0.25
71 | YVVA | ≤ 0.25
72 | SGHT | ≤ 0.25
73 | WKSK | ≤ 0.25
74 | KLPA | ≤ 0.25
75 | TRIR | ≤ 0.25
76 | FAFV | ≤ 0.25
77 | LNEP | ≤ 0.25
78 | VLSR | ≤ 0.25

Row | Variant | enrichment ratio
79 | FWCG | ≤ 0.25
80 | WMYE | ≤ 0.25
81 | WVLV | ≤ 0.25
82 | AFKR | ≤ 0.25
83 | SVES | ≤ 0.25
84 | FFFA | ≤ 0.25
85 | IDAH | ≤ 0.25
86 | NDRQ | ≤ 0.25
87 | SGHG | ≤ 0.25
88 | SFHL | ≤ 0.25
89 | MHLK | ≤ 0.25
90 | VHVK | ≤ 0.25
91 | NLDC | ≤ 0.25
92 | RGRP | ≤ 0.25
93 | TTCY | 4.01
94 | TRDT | ≤ 0.25
95 | NHVC | ≤ 0.25
96 | HWSK | ≤ 0.25
97 | LPQM | ≤ 0.25
98 | HLWK | ≤ 0.25
99 | GVIH | ≤ 0.25
100 | SQHQ | ≤ 0.25
101 | SSNS | 0.835
102 | RPMF | ≤ 0.25
103 | DMQN | ≤ 0.25
104 | TMHY | 3.73

Row | Variant | enrichment ratio
105 | TRAV | ≤ 0.25
106 | MKHY | ≤ 0.25
107 | SYDF | ≤ 0.25
108 | LEGF | ≤ 0.25
109 | ANMD | ≤ 0.25
110 | DNFA | ≤ 0.25
111 | FACD | ≤ 0.25
112 | AIGL | 7.5
113 | LNMW | ≤ 0.25
114 | EDSC | ≤ 0.25
115 | YEQT | ≤ 0.25
116 | ASAS | 15.3
117 | IMFS | ≤ 0.25
118 | QQWV | 11.8
119 | QYNL | ≤ 0.25
120 | FSTP | 0.786
121 | DDHM | ≤ 0.25
122 | TAGN | 7.67
123 | KPIE | ≤ 0.25
124 | DDWR | ≤ 0.25
125 | IISC | ≤ 0.25
126 | KQCA | ≤ 0.25
127 | WIPG | ≤ 0.25
128 | TFSH | ≤ 0.25
129 | VQPD | ≤ 0.25
130 | PICD | ≤ 0.25

Row | Variant | enrichment ratio
131 | MVFQ | 13.2
132 | DDMV | ≤ 0.25
133 | GVMD | ≤ 0.25
134 | LFVG | ≤ 0.25
135 | EEHK | ≤ 0.25
136 | HGSN | ≤ 0.25
137 | FYYA | ≤ 0.25
138 | RGYV | ≤ 0.25
139 | LGEC | ≤ 0.25
140 | SGLD | ≤ 0.25
141 | AKWP | ≤ 0.25
142 | QGDS | ≤ 0.25
143 | LNGT | ≤ 0.25
144 | YPQW | ≤ 0.25
145 | FSMD | ≤ 0.25
146 | LGSV | ≤ 0.25
147 | IMMM | ≤ 0.25
148 | LFAH | ≤ 0.25
149 | VIHR | ≤ 0.25
150 | KNTV | ≤ 0.25
151 | YCES | ≤ 0.25
152 | LTDT | ≤ 0.25
153 | FVGD | ≤ 0.25
